{"source": "paper PMC9911399", "about": "“Two distinct binding modes provide the RNA-binding protein RbFox with extraordinary sequence specificity”", "binders": {"B1": {"name": "ACAACGA (DNA:RNA)", "RNA": "GGGAGACCGGAAUUCAGAUUGUCCACAACGAUUAAAUCCCGUCGUAGCCACCA", "DNA 1": "CAATCTGAATTCCGGTCTCCC", "DNA 2": "TGGTGGCTACGACGGGATT"}, "B2": {"name": "UAUGCAU (DNA:RNA)", "RNA": "B1 RNA with A25U, C26A, A27U, A28G, G30A, A31U", "DNA 1": "CAATCTGAATTCCGGTCTCCC", "DNA 2": "TGGTGGCTACGACGGGATT"}, "B3": {"name": "GAGGAUG (DNA:RNA)", "RNA": "GGGAGACCGGAAUUCAGAUUGUCCGAGGAUGUUAAAUCCCGUCGUAGCCACCA", "DNA 1": "CAATCTGAATTCCGGTCTCCC", "DNA 2": "TGGTGGCTACGACGGGATT"}, "B4": {"name": "GAUACCG (DNA:RNA)", "RNA": "B3 RNA with G27U, G28A, A29C, U30C", "DNA 1": "CAATCTGAATTCCGGTCTCCC", "DNA 2": "TGGTGGCTACGACGGGATT"}, "B5": {"name": "AGGGAGC (DNA:RNA)", "RNA": "B3 RNA with G25A, A26G, U30G, G31C", "DNA 1": "CAATCTGAATTCCGGTCTCCC", "DNA 2": "TGGTGGCTACGACGGGATT"}, "B6": {"name": "UUUUGCA (DNA:RNA)", "RNA": "B1 RNA with A25U, C26U, A27U, A28U, C29G, G30C", "DNA 1": "CAATCTGAATTCCGGTCTCCC", "DNA 2": "TGGTGGCTACGACGGGATT"}, "B7": {"name": "GCUAUCU (DNA:RNA)", "RNA": "B1 RNA with A25G, A27U, C29U, G30C, A31U", "DNA 1": "CAATCTGAATTCCGGTCTCCC", "DNA 2": "TGGTGGCTACGACGGGATT"}, "B8": {"name": "CGAUGGC (DNA:RNA)", "RNA": "B1 RNA with A25C, C26G, A28U, C29G, A31C", "DNA 1": "CAATCTGAATTCCGGTCTCCC", "DNA 2": "TGGTGGCTACGACGGGATT"}, "B9": {"name": "UGGCAUA (DNA:RNA)", "RNA": "B3 RNA with G25U, A26G, G28C, G31A", "DNA 1": "CAATCTGAATTCCGGTCTCCC", "DNA 2": "TGGTGGCTACGACGGGATT"}, "B10": {"name": "UCGUGUU (DNA:RNA)", "RNA": "B3 RNA with G25U, A26C, G28U, A29G, G31U", "DNA 1": "CAATCTGAATTCCGGTCTCCC", "DNA 2": "TGGTGGCTACGACGGGATT"}, "B11": {"name": "AUACGAA (DNA:RNA)", "RNA": "B1 RNA with C26U, A28C, C29G, G30A", "DNA 1": "CAATCTGAATTCCGGTCTCCC", "DNA 2": "TGGTGGCTACGACGGGATT"}, "B12": {"name": "UAACUGG (DNA:RNA)", "RNA": "B1 RNA with A25U, C26A, A28C, C29U, A31G", "DNA 1": "CAATCTGAATTCCGGTCTCCC", "DNA 2": "TGGTGGCTACGACGGGATT"}, "B13": {"name": "GCCUGCA (DNA:RNA)", "RNA": "B1 RNA with A25G, A27C, A28U, C29G, G30C", "DNA 1": "CAATCTGAATTCCGGTCTCCC", "DNA 2": "TGGTGGCTACGACGGGATT"}, "B14": {"name": "CAUUUGU (DNA:RNA)", "RNA": "B1 RNA with A25C, C26A, A27U, A28U, C29U, A31U", "DNA 1": "CAATCTGAATTCCGGTCTCCC", "DNA 2": "TGGTGGCTACGACGGGATT"}, "B15": {"name": "AUUCGCG (DNA:RNA)", "RNA": "B1 RNA with C26U, A27U, A28C, C29G, G30C, A31G", "DNA 1": "CAATCTGAATTCCGGTCTCCC", "DNA 2": "TGGTGGCTACGACGGGATT"}, "B16": {"name": "GCAAACG (DNA:RNA)", "RNA": "B1 RNA with A25G, C29A, G30C, A31G", "DNA 1": "CAATCTGAATTCCGGTCTCCC", "DNA 2": "TGGTGGCTACGACGGGATT"}, "B17": {"name": "AAGACCG (DNA:RNA)", "RNA": "B1 RNA with C26A, A27G, G30C, A31G", "DNA 1": "CAATCTGAATTCCGGTCTCCC", "DNA 2": "TGGTGGCTACGACGGGATT"}, "B18": {"name": "AAAAACC (DNA:RNA)", "RNA": "B1 RNA with C26A, C29A, G30C, A31C", "DNA 1": "CAATCTGAATTCCGGTCTCCC", "DNA 2": "TGGTGGCTACGACGGGATT"}, "B19": {"name": "UAUACCG (DNA:RNA)", "RNA": "B1 RNA with A25U, C26A, A27U, G30C, A31G", "DNA 1": "CAATCTGAATTCCGGTCTCCC", "DNA 2": "TGGTGGCTACGACGGGATT"}, "B20": {"name": "GGGGAGG (DNA:RNA)", "RNA": "B3 RNA with A26G, U30G", "DNA 1": "CAATCTGAATTCCGGTCTCCC", "DNA 2": "TGGTGGCTACGACGGGATT"}, "B21": {"name": "UUACACG (DNA:RNA)", "RNA": "B3 RNA with G25U, A26U, G27A, G28C, U30C", "DNA 1": "CAATCTGAATTCCGGTCTCCC", "DNA 2": "TGGTGGCTACGACGGGATT"}, "B22": {"name": "UUGCGUG (DNA:RNA)", "RNA": "B3 RNA with G25U, A26U, G28C, A29G", "DNA 1": "CAATCTGAATTCCGGTCTCCC", "DNA 2": "TGGTGGCTACGACGGGATT"}, "B23": {"name": "UGCGAGA (DNA:RNA)", "RNA": "B1 RNA with A25U, C26G, A27C, A28G, C29A", "DNA 1": "CAATCTGAATTCCGGTCTCCC", "DNA 2": "TGGTGGCTACGACGGGATT"}, "B24": {"name": "CCACUAU (DNA:RNA)", "RNA": "B1 RNA with A25C, A28C, C29U, G30A, A31U", "DNA 1": "CAATCTGAATTCCGGTCTCCC", "DNA 2": "TGGTGGCTACGACGGGATT"}, "B25": {"name": "UGAAUGA (DNA:RNA)", "RNA": "B1 RNA with A25U, C26G, C29U", "DNA 1": "CAATCTGAATTCCGGTCTCCC", "DNA 2": "TGGTGGCTACGACGGGATT"}, "B26": {"name": "GAUACUU (DNA:RNA)", "RNA": "B3 RNA with G27U, G28A, A29C, G31U", "DNA 1": "CAATCTGAATTCCGGTCTCCC", "DNA 2": "TGGTGGCTACGACGGGATT"}, "B27": {"name": "UGGGAUC (DNA:RNA)", "RNA": "B3 RNA with G25U, A26G, G31C", "DNA 1": "CAATCTGAATTCCGGTCTCCC", "DNA 2": "TGGTGGCTACGACGGGATT"}, "B28": {"name": "UGUAUUC (DNA:RNA)", "RNA": "B1 RNA with A25U, C26G, A27U, C29U, G30U, A31C", "DNA 1": "CAATCTGAATTCCGGTCTCCC", "DNA 2": "TGGTGGCTACGACGGGATT"}, "B29": {"name": "AUUAGGA (DNA:RNA)", "RNA": "B1 RNA with C26U, A27U, C29G", "DNA 1": "CAATCTGAATTCCGGTCTCCC", "DNA 2": "TGGTGGCTACGACGGGATT"}, "B30": {"name": "AAUAGGU (DNA:RNA)", "RNA": "B1 RNA with C26A, A27U, C29G, A31U", "DNA 1": "CAATCTGAATTCCGGTCTCCC", "DNA 2": "TGGTGGCTACGACGGGATT"}, "B31": {"name": "ACGCUCG (DNA:RNA)", "RNA": "B1 RNA with A27G, A28C, C29U, G30C, A31G", "DNA 1": "CAATCTGAATTCCGGTCTCCC", "DNA 2": "TGGTGGCTACGACGGGATT"}}, "note": "Positions count from the first letter of the chain named. This is one part of the list."}
{"target": "T1, RBFOX1 RRM (Homo sapiens, UniProt Q9NWB1 109-208)", "T1 sequence": "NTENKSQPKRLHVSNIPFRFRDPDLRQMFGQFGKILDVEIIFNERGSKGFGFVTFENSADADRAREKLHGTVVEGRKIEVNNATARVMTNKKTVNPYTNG", "assay": "EMSA; HiTS-Eq, 1 nM pool, 10 min; buffer printed only for the single-RNA assays: 10 mM Tris pH 7.5, 150 mM NaCl, 3.4 mM EDTA, 0.001% NP-40, 30 C", "details": "tags: His6 N-terminal (pET28a); label: 5' 32P", "method_in_brief": "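These values rest on relative association constants, computed from read-count changes of each RNA species versus the control reaction and normalised to the cognate motif. Reads came from free RNA recovered by 8% native PAGE after purified RbFox RRM (wild type or mutant) at increasing concentrations was equilibrated for 10 min in 50 µL with 1 nM of a 5′-radiolabelled pool with 7 randomized nucleotides and DNA-annealed flanks.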"}
{"binder": "B1", "binding signal": "0.00357 KA relative to UGCAUGU"}
{"binder": "B2", "binding signal": "0.0145 KA relative to UGCAUGU"}
{"binder": "B3", "binding signal": "0.0147 KA relative to UGCAUGU"}
{"binder": "B4", "binding signal": "0.00627 KA relative to UGCAUGU"}
{"binder": "B5", "binding signal": "0.0228 KA relative to UGCAUGU"}
{"binder": "B6", "binding signal": "0.0266 KA relative to UGCAUGU"}
{"binder": "B7", "binding signal": "0.0105 KA relative to UGCAUGU"}
{"binder": "B8", "binding signal": "0.0149 KA relative to UGCAUGU"}
{"binder": "B9", "binding signal": "0.0137 KA relative to UGCAUGU"}
{"binder": "B10", "binding signal": "0.0182 KA relative to UGCAUGU"}
{"binder": "B11", "binding signal": "0.00544 KA relative to UGCAUGU"}
{"binder": "B12", "binding signal": "0.0109 KA relative to UGCAUGU"}
{"binder": "B13", "binding signal": "0.0378 KA relative to UGCAUGU"}
{"binder": "B14", "binding signal": "0.0108 KA relative to UGCAUGU"}
{"binder": "B15", "binding signal": "0.0127 KA relative to UGCAUGU"}
{"binder": "B16", "binding signal": "0.00487 KA relative to UGCAUGU"}
{"binder": "B17", "binding signal": "0.00753 KA relative to UGCAUGU"}
{"binder": "B18", "binding signal": "0.000205 KA relative to UGCAUGU"}
{"binder": "B19", "binding signal": "0.00193 KA relative to UGCAUGU"}
{"binder": "B20", "binding signal": "0.025 KA relative to UGCAUGU"}
{"binder": "B21", "binding signal": "0.00981 KA relative to UGCAUGU"}
{"binder": "B22", "binding signal": "0.0447 KA relative to UGCAUGU"}
{"binder": "B23", "binding signal": "0.0189 KA relative to UGCAUGU"}
{"binder": "B24", "binding signal": "0.00428 KA relative to UGCAUGU"}
{"binder": "B25", "binding signal": "0.0319 KA relative to UGCAUGU"}
{"binder": "B26", "binding signal": "0.00562 KA relative to UGCAUGU"}
{"binder": "B27", "binding signal": "0.0286 KA relative to UGCAUGU"}
{"binder": "B28", "binding signal": "0.0153 KA relative to UGCAUGU"}
{"binder": "B29", "binding signal": "0.0014 KA relative to UGCAUGU"}
{"binder": "B30", "binding signal": "0.00549 KA relative to UGCAUGU"}
{"binder": "B31", "binding signal": "0.0146 KA relative to UGCAUGU"}
